Binding data for 5 molecules are collected here from paper PMC11696497.

Protein sequences, listed by entry. Tags and fused reporters are not part of them. Residues count along the entry.
UniProt P56450: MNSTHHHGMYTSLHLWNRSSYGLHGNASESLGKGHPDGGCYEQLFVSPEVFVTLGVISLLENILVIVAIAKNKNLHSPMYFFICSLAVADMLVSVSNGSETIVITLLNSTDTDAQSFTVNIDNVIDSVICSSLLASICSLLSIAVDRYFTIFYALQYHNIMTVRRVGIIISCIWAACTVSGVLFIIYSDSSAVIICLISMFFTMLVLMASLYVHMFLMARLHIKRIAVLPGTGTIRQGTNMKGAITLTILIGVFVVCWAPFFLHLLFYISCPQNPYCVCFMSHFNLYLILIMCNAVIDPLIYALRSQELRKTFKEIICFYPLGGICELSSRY
UniProt P43220, residues 24-463: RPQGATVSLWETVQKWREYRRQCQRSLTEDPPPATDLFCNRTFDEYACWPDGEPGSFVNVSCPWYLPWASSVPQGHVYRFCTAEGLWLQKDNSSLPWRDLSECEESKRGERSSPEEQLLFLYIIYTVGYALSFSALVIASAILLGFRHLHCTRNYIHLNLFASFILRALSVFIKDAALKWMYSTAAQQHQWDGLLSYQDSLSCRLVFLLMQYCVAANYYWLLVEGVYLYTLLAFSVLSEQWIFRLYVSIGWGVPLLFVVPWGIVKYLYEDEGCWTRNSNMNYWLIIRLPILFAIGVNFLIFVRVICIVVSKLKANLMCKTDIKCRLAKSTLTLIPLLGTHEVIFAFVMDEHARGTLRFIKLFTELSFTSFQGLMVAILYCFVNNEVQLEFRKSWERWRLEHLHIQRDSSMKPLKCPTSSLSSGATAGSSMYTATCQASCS
UniProt P32245: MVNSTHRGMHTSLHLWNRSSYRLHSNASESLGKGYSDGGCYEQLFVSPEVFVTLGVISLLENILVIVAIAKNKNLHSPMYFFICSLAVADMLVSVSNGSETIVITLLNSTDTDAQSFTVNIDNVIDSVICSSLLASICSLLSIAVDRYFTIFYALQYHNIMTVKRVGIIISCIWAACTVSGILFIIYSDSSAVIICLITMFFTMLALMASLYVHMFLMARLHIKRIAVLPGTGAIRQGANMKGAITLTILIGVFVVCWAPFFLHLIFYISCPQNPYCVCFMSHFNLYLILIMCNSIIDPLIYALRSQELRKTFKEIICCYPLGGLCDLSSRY

Numbering of substitutions follows the chain as printed. No constants are given. Whether binding was seen depends on the method and setting. Binding seen in cells or lysates may run through a third protein. Some binding calls cover weakened binding; strength is not graded here. For some assays here: Sequences can lack the tags named with a protein.

Test [1] concerns the target T1, NUCB2-Flag (nucleobindin-2, Flag-tagged, from plasmid pc-NUCB2-Flag) (UniProt P80303).
T1 sequence: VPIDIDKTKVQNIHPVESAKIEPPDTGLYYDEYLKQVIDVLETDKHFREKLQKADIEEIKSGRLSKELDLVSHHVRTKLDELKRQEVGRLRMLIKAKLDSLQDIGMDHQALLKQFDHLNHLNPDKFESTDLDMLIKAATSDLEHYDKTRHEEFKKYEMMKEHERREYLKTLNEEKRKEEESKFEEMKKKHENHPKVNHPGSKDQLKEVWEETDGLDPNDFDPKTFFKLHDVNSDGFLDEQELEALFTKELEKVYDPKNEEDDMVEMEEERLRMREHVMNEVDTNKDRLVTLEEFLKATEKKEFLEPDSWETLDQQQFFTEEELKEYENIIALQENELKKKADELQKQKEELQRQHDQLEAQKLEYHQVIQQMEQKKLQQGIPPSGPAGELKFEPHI
Put plainly: co-IP; STC-1 cells transfected or cotransfected with pc-NUCB2-Flag, pc-MC4R-HA, pc-GLP-1R-HA or empty vector for 48 h; lysed in RIPA buffer; IP with anti-HA or anti-Flag antibody and protein A/G magnetic beads; immunoblot. For orientation: Immunoblotting shows a protein as a band on a membrane.

Test [2] has as its target T2, NUCB2 with EGFP at its C-terminus (plasmid pEGFP-NUCB2) (UniProt P80303).
T2 sequence: T1 sequence
The test is described as follows: FRET or BRET; acceptor photobleaching FRET, EGFP-mCherry pair; pEGFP-NUCB2 and pmCherry-MC4R transfected into HEK293T cells for 48 h, cells fixed with 4% paraformaldehyde; negative control pEGFP-N1 and pmCherry-N1. For orientation: In BRET a luciferase serves as donor, and the signal depends on an acceptor being close.

The target of test [3] is T3, NUCB2 deletion mutant ΔN25–50, Flag-tagged (plasmid pc-ΔN25–50-Flag) (UniProt P80303).
T3 sequence: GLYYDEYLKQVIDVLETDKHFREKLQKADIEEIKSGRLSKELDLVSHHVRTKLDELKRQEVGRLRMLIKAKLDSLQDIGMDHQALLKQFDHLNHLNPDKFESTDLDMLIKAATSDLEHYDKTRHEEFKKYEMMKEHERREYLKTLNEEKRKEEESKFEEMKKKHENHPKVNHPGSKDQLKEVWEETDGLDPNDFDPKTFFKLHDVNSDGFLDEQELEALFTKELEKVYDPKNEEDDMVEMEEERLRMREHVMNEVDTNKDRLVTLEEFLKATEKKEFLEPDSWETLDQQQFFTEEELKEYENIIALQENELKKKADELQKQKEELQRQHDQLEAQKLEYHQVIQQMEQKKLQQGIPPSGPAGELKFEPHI
Put plainly: co-IP; Flag-tagged NUCB2 and deletion mutants transfected for 48 h (STC-1 cells by the legend of Figure 6L; HEK293T cells with pc-MC4R-HA by the methods); RIPA lysate; immunoblot.

Test [4] has as its target T1, NUCB2-Flag (nucleobindin-2, Flag-tagged, from plasmid pc-NUCB2-Flag). The test is described as above.
Test [5] has as its target T4, NUCB2 deletion mutant ΔN51–75, Flag-tagged (plasmid pc-ΔN51–75-Flag) (UniProt P80303).
T4 sequence: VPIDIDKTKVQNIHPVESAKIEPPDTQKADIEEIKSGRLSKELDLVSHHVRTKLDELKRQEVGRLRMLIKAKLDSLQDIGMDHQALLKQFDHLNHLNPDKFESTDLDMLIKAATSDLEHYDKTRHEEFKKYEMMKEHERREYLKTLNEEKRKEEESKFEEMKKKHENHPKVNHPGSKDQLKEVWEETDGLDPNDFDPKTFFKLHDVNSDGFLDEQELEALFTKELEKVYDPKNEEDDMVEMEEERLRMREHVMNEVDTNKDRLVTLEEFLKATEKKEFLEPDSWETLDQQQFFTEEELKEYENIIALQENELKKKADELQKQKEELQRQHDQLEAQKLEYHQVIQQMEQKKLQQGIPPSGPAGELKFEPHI
The description is as above.

For test [6], the target named is T5, NUCB2 deletion mutant ΔN76–106, Flag-tagged (plasmid pc-ΔN76–106-Flag) (UniProt P80303).
T5 sequence: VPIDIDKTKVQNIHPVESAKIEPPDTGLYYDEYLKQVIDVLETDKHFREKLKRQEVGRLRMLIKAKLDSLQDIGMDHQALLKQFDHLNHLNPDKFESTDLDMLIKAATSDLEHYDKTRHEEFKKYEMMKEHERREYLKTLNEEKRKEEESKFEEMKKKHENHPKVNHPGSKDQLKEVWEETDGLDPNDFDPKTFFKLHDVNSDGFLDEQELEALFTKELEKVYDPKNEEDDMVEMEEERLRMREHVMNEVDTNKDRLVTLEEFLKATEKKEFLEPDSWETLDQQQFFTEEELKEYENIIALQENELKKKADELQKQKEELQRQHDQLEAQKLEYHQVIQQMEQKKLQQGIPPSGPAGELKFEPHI
Described as above.

Test [7] concerns the target T1, NUCB2-Flag (nucleobindin-2, Flag-tagged, from plasmid pc-NUCB2-Flag). The test is described as follows: co-IP; 293T cells transfected with Flag-tagged NUCB2 or NUCB2^ΔHFR; IP with anti-flag magnetic beads in cell lysates; immunoblot.
Test [8] has as its target T6, NUCB2^ΔHFR-Flag (NUCB2 with 70H-F-R72 mutated to 70A-A-A72, Flag-tagged) (UniProt P80303).
T6 sequence: T1 sequence with H46A, F47A, R48A
The description is as above.

Test [9] addresses T7, endogenous NUCB2/nesfatin-1 of STC-1 cells (mouse (endogenous in STC-1)) (UniProt P81117).
T7 sequence: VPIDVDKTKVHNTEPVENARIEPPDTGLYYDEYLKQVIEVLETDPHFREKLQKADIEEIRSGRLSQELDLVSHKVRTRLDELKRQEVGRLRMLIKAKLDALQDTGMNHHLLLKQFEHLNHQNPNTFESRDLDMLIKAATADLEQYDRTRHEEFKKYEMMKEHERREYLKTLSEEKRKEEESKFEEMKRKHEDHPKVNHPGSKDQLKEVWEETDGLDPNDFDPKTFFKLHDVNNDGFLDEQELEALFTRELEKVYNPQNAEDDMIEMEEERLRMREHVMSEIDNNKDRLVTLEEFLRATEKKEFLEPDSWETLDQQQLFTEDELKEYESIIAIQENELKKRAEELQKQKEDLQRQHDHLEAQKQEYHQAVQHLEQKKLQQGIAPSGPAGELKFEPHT
The test is described as follows: co-IP; endogenous proteins in STC-1 lysate; IP with anti-NUCB2/nesfatin-1 or anti-MC4R antibody and protein A/G magnetic beads; immunoblot.

In test [10] the target is endogenous MC4R of STC-1 cells (mouse (endogenous in STC-1)) (UniProt P56450). Described as above.

For “GLP-1R-HA (GLP-1 receptor, HA-tagged, from plasmid pc-GLP-1R-HA) (from UniProt P43220 24-463)”, in test [1], the binding result is listed as “no binding”.

With “MC4R with mCherry at its C-terminus (plasmid pmCherry-MC4R) (from UniProt P32245 1-332) (receptor)”, the binding result in test [2] is recorded as “binds”.

With “MC4R-HA (melanocortin 4 receptor, HA-tagged, from plasmid pc-MC4R-HA) (from UniProt P32245 1-332)”, the binding result in test [3] was “binds”; in test [4] it was “binds”; in test [5], “no binding”; in test [6], “binds”; in [1], “binds”; in test [7] it was “binds”. Besides, in test [8], the binding entry was “no binding”.

Take “endogenous MC4R of STC-1 cells (from UniProt P56450 1-332) (receptor)”: the binding result in test [9] is given as “binds”.

B1: endogenous NUCB2/nesfatin-1 of STC-1 cells (protein, UniProt P81117 25-420)
chain: T7 sequence
For B1, in test [10], the binding result is recorded as “binds”.
